Some of the results follow.
B1: PhoQ; a variant is named by its letters at X, in order, P23837 (parent)
chain: MKKLLRLFFPLSLRVRFLLATAAVVLVLSLAYGMVALIGYSVSFDKTTFRLLRGESNLFYTLAKWENNKLHVELPENIDKQSPTMTLIYDENGQLLWAQRDVPWLMKMIQPDWLKSNGFHEIEADVNDTSLLLSGDHSIQQQLQEVREDDDDAEMTHSVAVNVYPATSRMPKLTIVVVDTIPVELKSSYMVWSWFIYVLSANLLLVIPLLWVAAWWSLRPIEALAKEVRELEEHNRELLNPATTRELTSLVRNLNRLLKSERERYDKYRTTLTDLTHSLKTPLXXLQXXLRSLRSEKMSVSDAEPVMLEQISRISQQIGYYLHRASMRGGTLLSRELHPVAPLLDNLTSALNKVYQRKGVNISLDISPEISFVGEQNDFVEVMGNVLDNACKYCLEFVEISARQTDEHLYIVVEDDGPGIPLSKREVIFDRGQRVDTLRPGQGVGLAVAREITEQYEGKIVAGESMLGGARMEVIFGRQHSAPKDE

Variants of: B1
Assay: enrichment ratio after two sorts for PhoP signalling (ratio (wild type AVST 3.29)); higher = more functional
Details: with PhoP (E. coli)

Point of comparison: AGAL, enrichment ratio 8.05. Against it:
- RQAD — lower, ≤ 0.25
- PVDD — lower, ≤ 0.25
- FEWS — lower, ≤ 0.25
- VQSE — lower, ≤ 0.25
- TGQH — lower, 4.83
- DAKT — lower, ≤ 0.25
- QSTL — lower, ≤ 0.25
- MAWF — lower, 3.66
- GSEA — lower, ≤ 0.25
- QKKN — lower, ≤ 0.25
- RVSC — lower, ≤ 0.25
- TLTL — higher, 14.1
- RIMQ — lower, ≤ 0.25
- IVSE — lower, ≤ 0.25
- IQEH — lower, ≤ 0.25
- WCTK — lower, ≤ 0.25
- RDVG — lower, ≤ 0.25
- ARWG — lower, ≤ 0.25
- FGTG — lower, ≤ 0.25
- QMGL — lower, 2.02
- AMRL — lower, ≤ 0.25
- ECPV — lower, ≤ 0.25
- AICH — higher, 15.1
- LMWT — lower, ≤ 0.25
- EGDP — lower, ≤ 0.25
- EVPS — lower, ≤ 0.25
- FLVP — lower, ≤ 0.25
- LFPM — lower, ≤ 0.25
- LDCF — lower, ≤ 0.25
- FEQD — lower, ≤ 0.25
- ANAR — lower, ≤ 0.25
- SMGT — lower, ≤ 0.25
- DGMI — lower, ≤ 0.25
- LPGM — lower, ≤ 0.25
- LESY — lower, ≤ 0.25
- ELAL — lower, ≤ 0.25
- IQRV — lower, ≤ 0.25
- PVKE — lower, ≤ 0.25
- HEVP — lower, ≤ 0.25
- RWQL — lower, ≤ 0.25
- LYVV — lower, ≤ 0.25
- AEWC — lower, ≤ 0.25
- MLPC — lower, ≤ 0.25
- FNPS — lower, ≤ 0.25
- MKDV — lower, ≤ 0.25
- NFCK — lower, ≤ 0.25
- NGES — lower, ≤ 0.25
- FFGA — lower, ≤ 0.25
- LQKC — lower, ≤ 0.25
- DHTY — lower, ≤ 0.25
- PKNH — lower, ≤ 0.25
- ESYH — lower, ≤ 0.25
- FSHN — lower, ≤ 0.25
- MLYC — lower, ≤ 0.25
- DYET — lower, ≤ 0.25
- IWPI — lower, ≤ 0.25
- ACVM — higher, 12.1
- RDWE — lower, ≤ 0.25
- RDQI — lower, ≤ 0.25
- MRCL — lower, ≤ 0.25
- DIEP — lower, ≤ 0.25
- WKTK — lower, ≤ 0.25
- YEAK — lower, 0.57
- IYFV — lower, ≤ 0.25
- CIHY — lower, ≤ 0.25
- YIIT — lower, ≤ 0.25
- AIAH — lower, 5.6
- DPVG — lower, ≤ 0.25
- ACRC — lower, ≤ 0.25
- NSCY — lower, ≤ 0.25
- QFVT — lower, ≤ 0.25
- NYHY — lower, ≤ 0.25
- HARW — lower, ≤ 0.25
- NFYC — lower, ≤ 0.25
- SRIM — higher, 13.7
- YWIA — lower, ≤ 0.25
- IQVR — lower, ≤ 0.25
- APMN — lower, ≤ 0.25
- SYPE — lower, ≤ 0.25
- NRAM — lower, ≤ 0.25
- QNYH — lower, ≤ 0.25
- MYSL — lower, ≤ 0.25
- AYDP — lower, ≤ 0.25
- FFEQ — lower, ≤ 0.25
- VWSR — lower, ≤ 0.25
- LGMS — lower, ≤ 0.25
- MSSR — lower, ≤ 0.25
- FYYI — lower, ≤ 0.25
- MRAW — lower, ≤ 0.25
- VDNC — lower, ≤ 0.25
- WQML — lower, ≤ 0.25
- GKYY — lower, ≤ 0.25
- YTTC — lower, ≤ 0.25
- DRPC — lower, ≤ 0.25
- RIAH — lower, ≤ 0.25
- YGTP — lower, 0.428
- YPKV — lower, ≤ 0.25
- VKPQ — lower, ≤ 0.25
- DDDP — lower, ≤ 0.25
- WPRG — lower, ≤ 0.25
- RAES — lower, ≤ 0.25
- SVQH — lower, 4.82
- LKQH — lower, ≤ 0.25
- FSRG — lower, ≤ 0.25
- WRDR — lower, ≤ 0.25
- EYQA — lower, ≤ 0.25
- PCPS — lower, ≤ 0.25
- IVAD — lower, ≤ 0.25
- KICC — lower, ≤ 0.25
- LDPM — lower, ≤ 0.25
- EING — lower, ≤ 0.25
- LVNF — lower, ≤ 0.25
- WSRC — lower, ≤ 0.25
- RLGE — lower, ≤ 0.25
- ARCL — lower, 4.81
- HNDL — lower, ≤ 0.25
- MMPP — lower, ≤ 0.25
- LYES — lower, ≤ 0.25
- GTII — higher, 13.8
- TLGH — higher, 12.5
- DGEL — lower, ≤ 0.25
- MAMH — lower, ≤ 0.25
- VFNS — lower, ≤ 0.25
- LDAP — lower, ≤ 0.25
- ADFD — lower, ≤ 0.25
- REEV — lower, ≤ 0.25
- LPKD — lower, ≤ 0.25
- KYRE — lower, ≤ 0.25
- VCGN — lower, ≤ 0.25
- SSKD — lower, ≤ 0.25
- TGMK — lower, ≤ 0.25
- NHMK — lower, ≤ 0.25
- RQAL — lower, ≤ 0.25
- KQWI — lower, ≤ 0.25
- ENPQ — lower, ≤ 0.25
- QDEV — lower, ≤ 0.25
- GMRT — lower, ≤ 0.25
- RPQS — lower, ≤ 0.25
- RLVG — lower, ≤ 0.25
- LGFT — lower, ≤ 0.25
- WKRI — lower, ≤ 0.25
- IECH — lower, ≤ 0.25
- KFQH — lower, 1.05
- FNEC — lower, ≤ 0.25
- YWLK — lower, ≤ 0.25
- AYVK — lower, ≤ 0.25
- KKYY — lower, ≤ 0.25
- RGDP — lower, ≤ 0.25
- DTIV — lower, ≤ 0.25
- TLCT — lower, 2.28
- WFAN — lower, ≤ 0.25
- WSTW — lower, ≤ 0.25
